This note sets out measurements from PMC3142473 (Journal of medicinal chemistry, 2008).

Where two headings read alike, the source gives them in different places.

One may read the IC50 as the concentration needed to halve the response being measured. One may read the Hill slope as the slope factor of the fitted curve. As usually defined, the pKa is the negative logarithm of the acid dissociation constant. Low readings indicate a stronger acid or weaker base, high ones a weaker acid or stronger base.

The subject of data set [1] is Sprague–Dawley rats. The conditions noted are these: for locomotor activity (total horizontal activity): ip, Figure 6A, p < 0.05 vs vehicle.
Data set [2] addresses recombinant rat NR1/NR2B receptors (Rattus norvegicus, UniProt P35439+Q00960).
The test system of data set [3] is Sprague–Dawley rats. Briefly: Maximal electroshock-induced seizures in rats. The settings on record: for duration of tonic hind limb extension: 30 mg/kg ip, 30 min pre-electroshock. On the technique in general: In the maximal electroshock model the usual endpoint is tonic extension of the hind limbs.
Data set [4] deals with NR1/NR2A (Rattus norvegicus, UniProt Q00959). Briefly: Two electrode voltage clamp, oocytes, NR1/NR2A. The data set is classed as cell-based. The conditions noted are these: 3 μM; 50 μM glutamate plus 30 μM glycine.
A short description of data set [5]: Mouse plasma binding. The data set is classed as in vitro ADME.
The target in data set [6] is α-2 adrenergic receptors. The data set can be described thus: Binding to α-2 adrenergic receptors. The settings on record: read-out: α-2 adrenergic receptor binding IC50.
Data set [7] is described as follows: Human plasma binding. Type of data set: in vitro ADME.
Data set [8] has as its system AMPA receptor subunit combinations GluR3, GluR4, and GluR2/3. The data set can be described thus: Two electrode voltage clamp, oocytes, recombinant AMPA receptors. Type of data set: cell-based, rat. The conditions noted are these: 3 μM; activated by 50 μM kainate. On the technique in general: In two-electrode clamp one electrode senses voltage and the other passes current.

Data set [9] relates to mice. The conditions noted are these: for rotorod performance (latency to fall): day 5. In general terms: Falling from the rotarod earlier than controls is read as motor impairment.
The subject of data set [10] is cultured rat cortical neurons. Briefly: NMDA-mediated neurotoxicity of cultured rat cortical neurons. The conditions noted are these: 10 min 100 μM NMDA plus 10 μM glycine; 100 μM D-APV = 100%.
Data set [11] deals with N-type calcium channels (Homo sapiens, UniProt Q00975). The data set can be described thus: Binding to N-type calcium channels.
Data set [12] concerns the target NR1/NR2C (Rattus norvegicus, UniProt Q00961). Briefly: Two electrode voltage clamp, oocytes, NR1/NR2C. Type of data set: cell-based. The settings on record: 3 μM; 50 μM glutamate plus 30 μM glycine.
For data set [13], the system named is C57Bl/6 mice. Briefly: Transient focal ischemia. The data set is classed as in vivo, mouse. The settings on record: 30 mg/kg ip 30 min before 30 min MCA occlusion; 24 h survival; p < 0.05.
Data set [14] deals with L-type calcium channels. Briefly: Binding to L-type calcium channels. The conditions noted are these: read-out: IC50, L-type calcium channel binding; data not shown.
For data set [15], the system named is kainate receptor GluR6 and GluR6/KA1. The data set can be described thus: Two electrode voltage clamp, oocytes, recombinant kainate receptors. The data set is classed as cell-based, rat. The settings on record: 3 μM; GluR6 by 3 nM domoate, GluR6/KA1 by 100 μM AMPA.
In data set [16] the target is NR1/NR2D (Rattus norvegicus, UniProt Q62645). Briefly: Two electrode voltage clamp, oocytes, NR1/NR2D. Type of data set: cell-based. The conditions noted are these: 3 μM; 50 μM glutamate plus 30 μM glycine.
A short description of data set [17]: pKa determination.
Data set [18] is described as follows: Plasma half-life and brain exposure.

UniProt Q00975, sequence (Q00975 whole entry): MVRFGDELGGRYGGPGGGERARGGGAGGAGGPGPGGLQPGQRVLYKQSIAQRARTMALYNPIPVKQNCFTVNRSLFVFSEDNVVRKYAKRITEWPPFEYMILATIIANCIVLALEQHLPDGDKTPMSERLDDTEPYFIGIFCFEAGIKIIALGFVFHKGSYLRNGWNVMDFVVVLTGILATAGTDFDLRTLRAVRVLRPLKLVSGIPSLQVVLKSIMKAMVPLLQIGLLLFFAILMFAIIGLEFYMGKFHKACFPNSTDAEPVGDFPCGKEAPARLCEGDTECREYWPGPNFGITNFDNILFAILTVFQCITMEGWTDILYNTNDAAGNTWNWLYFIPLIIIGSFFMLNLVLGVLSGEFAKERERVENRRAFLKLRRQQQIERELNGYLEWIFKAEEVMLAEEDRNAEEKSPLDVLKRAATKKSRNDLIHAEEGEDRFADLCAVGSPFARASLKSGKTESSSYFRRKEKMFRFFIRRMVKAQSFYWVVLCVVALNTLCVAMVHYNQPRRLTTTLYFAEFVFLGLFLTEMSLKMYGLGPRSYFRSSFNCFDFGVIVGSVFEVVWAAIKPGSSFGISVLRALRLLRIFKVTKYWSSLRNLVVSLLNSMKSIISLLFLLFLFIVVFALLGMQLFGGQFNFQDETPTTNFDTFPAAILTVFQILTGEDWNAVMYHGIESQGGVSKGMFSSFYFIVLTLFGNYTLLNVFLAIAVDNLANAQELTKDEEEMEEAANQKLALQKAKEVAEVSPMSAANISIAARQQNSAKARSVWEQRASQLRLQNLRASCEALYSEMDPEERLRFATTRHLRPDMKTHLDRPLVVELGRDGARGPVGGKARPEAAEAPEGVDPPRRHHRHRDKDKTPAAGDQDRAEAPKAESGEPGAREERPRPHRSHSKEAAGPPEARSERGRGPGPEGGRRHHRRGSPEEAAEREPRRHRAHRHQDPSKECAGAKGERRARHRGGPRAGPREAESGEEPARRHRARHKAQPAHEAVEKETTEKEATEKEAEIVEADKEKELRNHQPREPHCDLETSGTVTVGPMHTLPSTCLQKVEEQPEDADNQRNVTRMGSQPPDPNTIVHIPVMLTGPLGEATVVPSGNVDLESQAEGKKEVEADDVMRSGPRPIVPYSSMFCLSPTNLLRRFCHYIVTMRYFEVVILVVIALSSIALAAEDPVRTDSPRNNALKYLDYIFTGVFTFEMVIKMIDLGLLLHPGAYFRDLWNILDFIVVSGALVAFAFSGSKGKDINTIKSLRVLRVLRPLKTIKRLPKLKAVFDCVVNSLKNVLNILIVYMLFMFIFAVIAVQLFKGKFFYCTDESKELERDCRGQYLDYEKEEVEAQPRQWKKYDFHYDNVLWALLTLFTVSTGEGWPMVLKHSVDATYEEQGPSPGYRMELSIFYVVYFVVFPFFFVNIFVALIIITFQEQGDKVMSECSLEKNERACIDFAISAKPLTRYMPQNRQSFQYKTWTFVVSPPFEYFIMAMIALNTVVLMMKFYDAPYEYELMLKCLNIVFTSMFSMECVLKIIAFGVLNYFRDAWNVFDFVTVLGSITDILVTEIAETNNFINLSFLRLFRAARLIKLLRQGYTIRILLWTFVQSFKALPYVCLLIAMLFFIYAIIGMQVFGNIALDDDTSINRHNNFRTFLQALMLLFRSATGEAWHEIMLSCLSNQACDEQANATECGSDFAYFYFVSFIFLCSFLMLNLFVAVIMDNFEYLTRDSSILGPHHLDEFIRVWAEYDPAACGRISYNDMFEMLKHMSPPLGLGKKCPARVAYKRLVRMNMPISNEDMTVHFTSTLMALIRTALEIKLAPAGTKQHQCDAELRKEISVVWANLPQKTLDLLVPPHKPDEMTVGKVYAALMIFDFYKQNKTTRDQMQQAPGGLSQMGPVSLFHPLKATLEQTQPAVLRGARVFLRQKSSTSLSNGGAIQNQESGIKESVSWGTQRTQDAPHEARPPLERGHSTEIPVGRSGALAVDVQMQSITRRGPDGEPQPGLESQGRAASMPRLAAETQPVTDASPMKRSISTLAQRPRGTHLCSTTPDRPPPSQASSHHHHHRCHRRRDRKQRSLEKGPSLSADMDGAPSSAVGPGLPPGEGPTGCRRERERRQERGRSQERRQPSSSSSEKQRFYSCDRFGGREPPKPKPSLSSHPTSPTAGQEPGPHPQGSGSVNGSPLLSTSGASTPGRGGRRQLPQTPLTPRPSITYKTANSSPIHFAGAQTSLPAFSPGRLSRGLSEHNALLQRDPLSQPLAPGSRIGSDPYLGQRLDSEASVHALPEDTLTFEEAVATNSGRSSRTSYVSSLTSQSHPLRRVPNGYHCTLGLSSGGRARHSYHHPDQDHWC

Take `O=C(O)[C@@H]1C[C@H](CP(=O)(O)O)CCN1` (racemic) [selfotel]: the “locomotor activity (total horizontal activity)” value in data set [1] was “locomotor-stimulating activity”.
On to `CN(CCc1ccc(Cl)c(Cl)c1)CC(O)COc1ccc(NS(C)(=O)=O)cc1` (stereo not drawn) [66/104], for which, in [2], the “voltage dependence of inhibition” value is on record as “voltage-independent”. In data set [3], the “duration of tonic hind limb extension” value is recorded as “significantly reduced”.
On to `CS(=O)(=O)Nc1ccc(OC[C@@H](O)CNCCc2ccc(Cl)c(Cl)c2)cc1` [Compound 29, (S)-1-(4-Methanesulfonamidephenoxy)-3-(3,4-dichlorophenylethylamino)-2-propanol], for which the “effect on evoked current, NR1/NR2A” value in data set [4] is recorded as “no effect”. Also, in [1] (300 mg/kg ip), the “effect on locomotor activity” value is on record as “virtually no effect”. Moreover, the plasma binding came to 88% in data set [5] and 98% in [7]. The IC50 is > 3 µM in data set [6], 0.033 µM in data set [2], 5 to 10 µM in data set [11] and 5 to 10 µM in [14]. Further, the “effect on recombinant AMPA receptors” value in [8] is listed as “no detectable effects”. For the same compound, the “rotorod performance (latency to fall)” value in [9] (30 mg/kg ip 20 min before first trial) is on record as “does not impair performance”. In data set [10], the “neuroprotection against NMDA-induced cell death (LDH release)” value was “neuroprotective in a concentration-dependent fashion”. Moreover, the Hill slope in [2] came out at 0.7. The “IC50 R/S (enantiomeric) ratio” value in data set [2] (R vs S enantiomer) worked out at 3.8. The “surmountability of inhibition by increased glycine or glutamate” value in [2] (n = 3 oocytes each) is listed as “not surmountable”. In addition, in [2] (saturating concentrations), the maximal inhibition is reported as 83%. Moreover, in [12], the “effect on evoked current, NR1/NR2C” value is given as “no effect”. For the same compound, the infarct volume result in data set [13] was “significant reduction”. Moreover, the “duration of tonic hind limb extension” value in data set [3] is recorded as “did not significantly reduce”. In [3] (100 mg/kg, p < 0.001, n = 10), the “tonic hind limb extension duration” value is 68 ± 6.1 % of control. Moreover, the “effect on recombinant kainate receptors” value in data set [15] was “no detectable effects”. In addition, in data set [16], the “effect on evoked current, NR1/NR2D” value is listed as “no effect”. In addition, the pKa in data set [17] (amino group) amounted to 9; in data set [17] (sulfonamide group) it was 8. Also, the peak brain concentration in data set [18] (30 mg/kg ip) is 0.17 µM. Besides, the “occupancy of NR2B receptors” value in data set [18] (doses administered for transient ischemia, for 2 h post surgery) was “exceed 60%”. For the same compound, the “plasma levels above the IC50 for hERG binding” value in data set [18] (free plasma concentration) was 2–3 fold.
On to `CS(=O)(=O)Nc1ccc(OC[C@@H](O)CN(CCO)CCc2ccc(Cl)c(Cl)c2)cc1` [Compound 68], for which the “duration of tonic hind limb extension” value in [3] was “significantly reduced”.
Regarding `C[C@]12N[C@H](Cc3ccccc31)c1ccccc12` [Compound 110, (+)MK-801], the “rotorod performance (latency to fall)” value in [9] (0.3 mg/kg ip) was “significant impairment in performance”. Further, in data set [9] (0.6 mg/kg, day 5 (not shown)), the rotorod performance entry is “complete ataxia”.
As for `CCc1cccc(N(C)C(N)=Nc2cccc3ccccc23)c1` [aptiganel], in data set [1], the “locomotor activity (total horizontal activity)” value is “locomotor-stimulating activity”.
